The chains are these.
B1: HA-ELL (protein, UniProt P55199 1-621)
chain: MAALKEDRSYGLSCGRVSDGSKVSVFHVKLTDSALRAFESYRARQDSVSLRPSIRFQGSQGHISIPQPDCPAEARTFSFYLSNIGRDNPQGSFDCIQQYVSSHGEVHLDCLGSIQDKITVCATDDSYQKARQSMAQAEEETRSRSAIVIKAGGRYLGKKVQFRKPAPGATDAVPSRKRATPINLASAIRKSGASAVSGGSGVSQRPFRDRVLHLLALRPYRKAELLLRLQKDGLTQADKDALDGLLQQVANMSAKDGTCTLQDCMYKDVQKDWPGYSEGDQQLLKRVLVRKLCQPQSTGSLLGDPAASSPPGERGRSASPPQKRLQPPDFIDPLANKKPRISHFTQRAQPAVNGKLGVPNGREALLPTPGPPASTDTLSSSTHLPPRLEPPRAHDPLADVSNDLGHSGRDCEHGEAAAPAPTVRLGLPLLTDCAQPSRPHGSPSRSKPKKKSKKHKDKERAAEDKPRAQLPDCAPATHATPGAPADTPGLNGTCSVSSVPTSTSETPDYLLKYAAISSSEQRQSYKNDFNAEYSEYRDLHARIERITRRFTQLDAQLRQLSQGSEEYETTRGQILQEYRKIKKTNTNYSQEKHRCEYLHSKLAHIKRLIAEYDQRQLQAWP

The chains behind the UniProt entries cited, without tags or fusion partners. Where a name states a change or a piece, a line headed by the entry shows the natural chain unless it says otherwise. A line that says so, or that is headed by a name, gives the form on record, which may keep a tag or linker. Residues count along the entry.
UniProt P49427: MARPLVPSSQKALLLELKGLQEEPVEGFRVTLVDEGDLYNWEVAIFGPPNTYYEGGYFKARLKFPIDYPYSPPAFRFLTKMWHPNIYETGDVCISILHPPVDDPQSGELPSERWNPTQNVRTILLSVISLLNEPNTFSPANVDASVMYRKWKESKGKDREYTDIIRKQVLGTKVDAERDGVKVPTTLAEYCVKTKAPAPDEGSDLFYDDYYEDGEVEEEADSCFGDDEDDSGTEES
UniProt O00762: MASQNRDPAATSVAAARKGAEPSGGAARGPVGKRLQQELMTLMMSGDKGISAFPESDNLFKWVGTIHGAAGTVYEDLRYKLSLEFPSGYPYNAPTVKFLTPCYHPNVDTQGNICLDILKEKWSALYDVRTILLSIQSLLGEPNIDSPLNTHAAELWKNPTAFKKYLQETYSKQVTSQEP
UniProt P61088: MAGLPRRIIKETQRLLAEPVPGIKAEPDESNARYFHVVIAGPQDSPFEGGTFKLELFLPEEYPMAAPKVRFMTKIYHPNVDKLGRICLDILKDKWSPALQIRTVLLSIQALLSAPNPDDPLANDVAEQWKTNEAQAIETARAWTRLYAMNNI
UniProt P62256: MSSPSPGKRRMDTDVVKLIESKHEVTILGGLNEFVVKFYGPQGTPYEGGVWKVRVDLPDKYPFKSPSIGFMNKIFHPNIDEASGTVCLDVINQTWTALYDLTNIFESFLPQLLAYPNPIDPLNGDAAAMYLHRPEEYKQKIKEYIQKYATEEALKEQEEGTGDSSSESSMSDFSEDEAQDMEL
UniProt O14933: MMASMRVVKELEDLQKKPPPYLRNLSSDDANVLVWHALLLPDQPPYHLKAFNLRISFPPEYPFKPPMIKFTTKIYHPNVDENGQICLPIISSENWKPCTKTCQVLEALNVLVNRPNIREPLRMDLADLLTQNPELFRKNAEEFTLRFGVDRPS
UniProt P61086: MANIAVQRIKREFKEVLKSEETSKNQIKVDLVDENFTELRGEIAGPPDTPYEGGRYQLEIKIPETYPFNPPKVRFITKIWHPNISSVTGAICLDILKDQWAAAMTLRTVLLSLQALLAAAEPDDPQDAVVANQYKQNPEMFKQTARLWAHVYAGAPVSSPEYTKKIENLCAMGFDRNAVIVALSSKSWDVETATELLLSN
UniProt P01106: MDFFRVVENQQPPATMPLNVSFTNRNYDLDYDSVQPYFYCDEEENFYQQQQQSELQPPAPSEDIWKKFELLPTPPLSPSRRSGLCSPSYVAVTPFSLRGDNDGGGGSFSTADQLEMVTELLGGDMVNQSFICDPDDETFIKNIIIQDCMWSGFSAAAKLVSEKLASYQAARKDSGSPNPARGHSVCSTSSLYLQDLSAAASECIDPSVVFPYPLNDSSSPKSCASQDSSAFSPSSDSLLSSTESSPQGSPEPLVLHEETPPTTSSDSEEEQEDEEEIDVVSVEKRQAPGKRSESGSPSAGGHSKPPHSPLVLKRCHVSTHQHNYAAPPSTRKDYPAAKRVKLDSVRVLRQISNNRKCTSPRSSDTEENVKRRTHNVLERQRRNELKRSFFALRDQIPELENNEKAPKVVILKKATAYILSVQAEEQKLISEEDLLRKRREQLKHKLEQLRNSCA
Myc-tagged c-Myc: residues 16-454 of P01106
HA-tagged c-Myc DNA-binding domain (aa 143-355): residues 158-370 of P01106

These are yes or no findings as the source states them, for the method shown. Binding seen in cells or lysates may run through a third protein. Some results given as binding are weak or reduced against the parent protein; the word gives no strength. Sequences can lack the tags named with a protein.

In the first assay the target is T1, ELL (tag not told for this experiment) (human) (UniProt P55199).
T1 sequence: B1 chain
Description: co-IP; ELL and 11 E2 enzymes cloned into the CMV-Myc expression vector; cells and the tag of ELL not told.
Regarding “UbcH3 (from UniProt P49427 1-236) (enzyme)”, the binding entry is “no binding”.
The same measure, in the same setting: to “UbcH10 (from UniProt O00762 1-179) (enzyme)” belongs “no binding”; to “Ubc13 (from UniProt P61088 1-152) (enzyme)”, “no binding”; to “UbcH2 (from UniProt P62256 1-183) (enzyme)”, “no binding”.
On the same count and under the same terms, to “UbcH8 (from UniProt O14933 1-153) (enzyme)” belongs “binds”; to “UbcH1 (from UniProt P61086 1-200) (enzyme)”, “no binding”.

A further assay has as its target T2, Flag-ELL (human) (UniProt P55199).
T2 sequence: B1 chain
Nature of the assay: co-IP; tagged proteins overexpressed by co-transfection in HEK293 or HEK293T cells; antibody-conjugated agarose beads (anti-c-Myc, anti-HA, anti-Flag); 2-3 times more HA-c-Myc plasmid where ELL was co-transfected.
Consider “HA-tagged c-Myc DNA-binding domain (aa 143-355) (from UniProt P01106-1 143-355) (domain or fragment)”, for which the binding result is reported as “no binding”.
Still for that read-out and setting: under HA-c-Myc (from UniProt P01106-1 1-439) stands “binds”.

The target in a further assay is Myc-tagged c-Myc (human) (UniProt P01106). Described as above.
As to B1, the binding entry is on record as “binds”.

The values above are taken from PMC4820845.
